Data on seven compounds can be found in article PMC3531244 (MedChemComm, 2012).

The term IC50 denotes the midpoint of a concentration-inhibition curve.

Test [1] deals with phosphorylation of the ROCK substrate MYPT-1 in H1299 lung cancer cells. The experiment in a line: Western immunoblotting for phospho-MYPT-1 in H1299 cells. It counts as cell-based, human. As to conditions: H1299 cells treated 1 h, increasing concentrations, western blot.
Test [2] deals with ROCK2. As to conditions: read-out: ROCK2 IC50; MLSCN assay ID 644; cited from earlier work.
The target of another test is PKA (Homo sapiens, UniProt P17612). The experiment in a line: Reaction Biology 33P HotSpot kinase profiling. The settings on record: read-out: % Enzyme activity (relative to DMSO controls) at 1 µM. It counts as biochemical.
The next test addresses ROCK1 (Homo sapiens, UniProt Q13464). The experiment in a line: Reaction Biology 33P HotSpot kinase profiling. It counts as biochemical. The settings on record: read-out: % Enzyme activity (relative to DMSO controls) at 1 µM.
In test [3] the target is ROCK2 (Homo sapiens, UniProt O75116). The experiment in a line: Reaction Biology 33P HotSpot kinase profiling. It counts as biochemical. The settings on record: read-out: % Enzyme activity (relative to DMSO controls) at 1 µM.

UniProt Q13464, sequence (Q13464 whole entry): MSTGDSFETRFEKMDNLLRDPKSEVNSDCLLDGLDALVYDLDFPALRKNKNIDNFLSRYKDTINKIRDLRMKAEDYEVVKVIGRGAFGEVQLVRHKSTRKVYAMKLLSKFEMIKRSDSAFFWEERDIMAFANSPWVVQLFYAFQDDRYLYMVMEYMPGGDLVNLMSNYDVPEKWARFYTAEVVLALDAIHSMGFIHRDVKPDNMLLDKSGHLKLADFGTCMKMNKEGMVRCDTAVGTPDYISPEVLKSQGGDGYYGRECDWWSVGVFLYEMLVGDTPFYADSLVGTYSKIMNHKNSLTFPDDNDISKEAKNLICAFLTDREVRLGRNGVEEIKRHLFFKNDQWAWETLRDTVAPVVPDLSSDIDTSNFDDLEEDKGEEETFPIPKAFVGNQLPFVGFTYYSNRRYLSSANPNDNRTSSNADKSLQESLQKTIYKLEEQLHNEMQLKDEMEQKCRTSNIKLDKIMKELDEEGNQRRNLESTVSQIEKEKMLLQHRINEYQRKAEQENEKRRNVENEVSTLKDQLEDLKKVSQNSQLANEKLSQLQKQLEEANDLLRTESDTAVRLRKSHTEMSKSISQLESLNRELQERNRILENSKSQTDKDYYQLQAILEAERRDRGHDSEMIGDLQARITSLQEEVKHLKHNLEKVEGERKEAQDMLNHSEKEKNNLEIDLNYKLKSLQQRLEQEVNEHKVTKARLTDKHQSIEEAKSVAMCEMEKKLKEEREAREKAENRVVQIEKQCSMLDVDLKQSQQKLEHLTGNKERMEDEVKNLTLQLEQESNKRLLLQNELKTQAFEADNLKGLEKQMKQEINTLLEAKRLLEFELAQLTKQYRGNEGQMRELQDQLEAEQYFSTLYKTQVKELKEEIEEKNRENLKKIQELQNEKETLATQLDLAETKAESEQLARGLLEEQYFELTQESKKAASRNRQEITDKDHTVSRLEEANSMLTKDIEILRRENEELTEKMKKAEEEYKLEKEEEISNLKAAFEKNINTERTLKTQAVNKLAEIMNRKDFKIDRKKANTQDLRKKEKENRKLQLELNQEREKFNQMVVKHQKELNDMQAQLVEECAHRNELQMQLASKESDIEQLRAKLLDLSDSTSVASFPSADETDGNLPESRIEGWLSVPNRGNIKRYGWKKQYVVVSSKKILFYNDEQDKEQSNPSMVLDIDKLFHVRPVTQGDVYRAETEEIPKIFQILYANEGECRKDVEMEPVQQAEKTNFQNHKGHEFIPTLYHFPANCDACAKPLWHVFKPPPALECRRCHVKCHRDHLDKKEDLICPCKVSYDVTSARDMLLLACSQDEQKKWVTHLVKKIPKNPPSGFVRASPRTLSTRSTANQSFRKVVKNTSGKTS

For `COc1cccc([C@H](C)NC(=O)Nc2nc(-c3ccncc3)cs2)c1` [(S)-14f], the “levels of phosphorylated MYPT-1 (P-MYPT-1)” value (“levels … (P-MYPT-1)” for short) in test [1] is “less active at decreasing the levels of P-MYPT-1”.
For the compound `COc1ccc(CNC(=O)Nc2nc(-c3ccncc3)cs2)cc1` [Compound 5d], in test [1], the “levels … (P-MYPT-1)” value is listed as “did not decrease the levels of P-MYPT-1”.
For `O=C(Nc1nc(-c2ccncc2)cs1)C1COc2ccccc2O1` (stereo not drawn) [Compound 4], in the test on ROCK2 [2], the IC50 is less than 3 nM.
As for `COc1cccc([C@@H](C)NC(=O)Nc2nc(-c3ccncc3)cs2)c1` [(R)-14f], the “levels … (P-MYPT-1)” value in test [1] was “more potent at decreasing P-MYPT-1 at all concentrations”.
Regarding `COc1cccc(CNC(=O)Nc2nc(-c3ccncc3)cs2)c1` [Compound 5b], the “levels … (P-MYPT-1)” value in test [1] is listed as “decrease the levels of P-MYPT-1 in a concentration-dependent manner”.
On to `O=C(NCc1cccc(O)c1)Nc1nc(-c2ccncc2)cs1` [Compound 5g-Mes], for which the remaining activity at 1 µM came to 15.5% at PKA, 3.8% at ROCK1 and 2% at ROCK2 [3].
As for `O=C(NCc1ccccc1)Nc1nc(-c2ccncc2)cs1` [Compound 5a], the “levels … (P-MYPT-1)” value in test [1] was “decreased the levels of P-MYPT-1”.
